The campaign covered roughly 310,000 compounds. About 2,200 (0.71%) showed an effect of 50% or more. The effect is printed as a negative number. The list shows a part of the results. Where a SMILES comes first, the peptide text is derived from it. [ ]: non-standard residue; d: D form. The star is where a group is joined. ξ: configuration not given here. ξY = NC(Cc1ccc(O)cc1)C(=O)O; Cbz = O=C(OCc1ccccc1)*; OtBu = CC(C)(C)O*; tBu = CC(C)(C)*

The target of the test is human ether-à-go-go-related gene (hERG) potassium channel (human, UniProt Q12809). Description: primary screen, population patch clamp on CHO cells stably expressing hERG.
human ether-à-go-go-related gene (hERG) potassium channel, sequence (Q12809 whole entry, looked up): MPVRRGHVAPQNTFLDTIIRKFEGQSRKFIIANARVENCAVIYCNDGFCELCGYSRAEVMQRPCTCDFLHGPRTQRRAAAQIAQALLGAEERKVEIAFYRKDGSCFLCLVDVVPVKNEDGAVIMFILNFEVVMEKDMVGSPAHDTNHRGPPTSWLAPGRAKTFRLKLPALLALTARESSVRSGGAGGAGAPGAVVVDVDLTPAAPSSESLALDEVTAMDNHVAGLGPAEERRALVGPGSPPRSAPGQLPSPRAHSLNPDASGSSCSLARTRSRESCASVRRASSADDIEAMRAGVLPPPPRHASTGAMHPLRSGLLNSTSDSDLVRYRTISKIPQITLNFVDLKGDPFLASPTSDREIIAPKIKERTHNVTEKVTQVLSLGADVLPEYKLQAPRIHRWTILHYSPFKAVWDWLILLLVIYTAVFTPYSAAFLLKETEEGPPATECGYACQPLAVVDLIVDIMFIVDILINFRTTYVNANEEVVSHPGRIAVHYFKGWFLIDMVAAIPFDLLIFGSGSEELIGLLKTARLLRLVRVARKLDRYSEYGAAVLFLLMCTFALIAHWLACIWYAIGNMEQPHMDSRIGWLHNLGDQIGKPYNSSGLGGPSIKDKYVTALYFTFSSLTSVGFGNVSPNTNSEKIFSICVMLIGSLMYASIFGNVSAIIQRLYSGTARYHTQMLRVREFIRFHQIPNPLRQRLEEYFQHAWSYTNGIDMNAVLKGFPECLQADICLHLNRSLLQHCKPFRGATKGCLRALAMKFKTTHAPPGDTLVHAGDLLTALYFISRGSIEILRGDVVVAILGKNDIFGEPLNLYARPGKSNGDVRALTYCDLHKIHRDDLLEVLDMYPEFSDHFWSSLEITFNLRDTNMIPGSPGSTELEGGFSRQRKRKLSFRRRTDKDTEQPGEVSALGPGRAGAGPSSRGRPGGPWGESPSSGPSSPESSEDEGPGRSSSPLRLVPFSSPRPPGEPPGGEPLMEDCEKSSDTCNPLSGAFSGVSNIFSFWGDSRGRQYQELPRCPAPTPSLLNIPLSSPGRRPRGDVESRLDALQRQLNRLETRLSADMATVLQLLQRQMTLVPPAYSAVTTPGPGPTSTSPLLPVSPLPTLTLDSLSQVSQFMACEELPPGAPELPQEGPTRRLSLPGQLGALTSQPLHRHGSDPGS
As to `Cc1nnsc1C(=O)Nc1ccc(Cl)cc1`, the “hERG current change (%, negative = inhibition) at 1uM” value is on record as -1.96%. As for `COC(=O)C1CCN(C(=O)COC(=O)C2CCN(S(=O)(=O)c3ccc4c(c3)OCCO4)CC2)CC1`, the “hERG current change (%, negative = inhibition) at 1uM” value is given as 17.6%. Take `COCCN(C(=O)COC(=O)CCC(=O)c1ccc(C)cc1)c1c(N)n(Cc2ccccc2)c(=O)[nH]c1=O`: the “hERG current change (%, negative = inhibition) at 1uM” value is 7.35%. Consider `COc1ccc(S(=O)(=O)Oc2ccc3cccc(N)c3c2)cc1`, for which the “hERG current change (%, negative = inhibition) at 1uM” value is on record as 12.7%. As for `CCOc1cc(CN2CCOCC2)cc(C(C)=O)c1.Cl`, the “hERG current change (%, negative = inhibition) at 1uM” value is reported as 13.9%. Take `Cc1c(Cl)cnc(NC(=O)COC(=O)c2nn(C)c(=O)c3ccccc23)c1Cl`: the “hERG current change (%, negative = inhibition) at 1uM” value is recorded as 0.749%. Take `CCN1C(=O)[C@H]2[C@@H](c3ccc(-c4ccc(Cl)c(Cl)c4)cc3)N[C@@](C)(C(=O)OC)[C@H]2C1=O.O=C(O)C(F)(F)F`: the “hERG current change (%, negative = inhibition) at 1uM” value worked out at 12.1%. As for `CC(=O)Nc1ccc(OS(=O)(=O)c2ccccc2C)cc1`, the “hERG current change (%, negative = inhibition) at 1uM” value turned out to be 17.1%. In the case of `Cc1cc(NC(=O)CCN2CC(C)OC(C)C2)ccc1Br.Cl` (stereo not shown), the “hERG current change (%, negative = inhibition) at 1uM” value was determined as 4.54%. Regarding `C=CCn1c(SCC(=O)c2c(N)n(C)c(=O)n(C)c2=O)nnc1-c1ccccc1F`, the “hERG current change (%, negative = inhibition) at 1uM” value was 1.97%. In the case of `C=CCOc1cccc(C(=O)N(C)C2CCCN(Cc3ccccc3F)C2)c1` (stereo not shown) it was 5.69%. In the case of `CC(C(=O)c1ccc(Cl)cc1Cl)n1cncn1.O=[N+]([O-])O` (stereo not shown) it was 9.38%; in that of `C[N+](C)=C1SCC(C)(/C=N/O)S1.[Br-]` (stereo not shown), 11.8%.

As to `O=S1(=O)N=C(N(CCO)/N=C/c2ccccc2F)c2ccccc21`, the “hERG current change (%, negative = inhibition) at 1uM” value stood at 10.2%.

With `CCOC(=O)C1CCN(c2c(Nc3ccc(C)c(C)c3)c(=O)c2=O)CC1`, the “hERG current change (%, negative = inhibition) at 1uM” value is listed as 4.46%. In the case of `Cc1cc(C)c(C#N)c(SCC(=O)N2CCN(Cc3ccccc3)CC2)n1` it was 4.4%; in that of `C=CCn1c(SCC(=O)Nc2ccc(Cl)cn2)nnc1C1CC1`, 1.93%. For the molecule `Cc1c(Cc2ccccc2)c(=O)oc2cc(OCC(=O)N3CCC(C(N)=O)CC3)ccc12`, the “hERG current change (%, negative = inhibition) at 1uM” value is on record as -3.02%. To `O=C(NC1CC1)c1cc(OCC(F)(F)F)ccc1OCC(F)(F)F` belongs -4.1%; to `Cc1cc(=S)cc(C)n1CCO`, 15.5%. To `N#Cc1cccnc1N1CCN(C(=O)c2ccccc2)CC1` belongs 11.8%; to `CC(C)c1nnc(NC(=O)c2cnccn2)s1`, 16%; to `COc1ccc(/C=N/NC(=O)C[n+]2ccccc2)c(OC)c1OC.[Cl-]`, 5.43%. In the case of `CCOC(=O)C1C(=O)NC(N2CCN(c3ccccc3)CC2)=NC1c1ccccc1` (stereo not shown) it was 3.25%; in that of `CC(C)OC(=O)c1ccc(OC(=O)c2cccnc2)cc1`, 12.4%. For the molecule `CCC(C)NC(=O)CSc1nnc(-c2ccncc2)n1-c1ccc(OC)cc1` (stereo not shown), the “hERG current change (%, negative = inhibition) at 1uM” value was found to be 4.29%. In the case of `N#Cc1sc2nc(C3CC3)cc(-c3ccc(Cl)cc3)c2c1N` it was 13.5%; in that of `CC(C)(C)OC(=O)C(Cc1ccc(OC(C)(C)C)cc1)NC(=O)CNC(=O)OCc1ccccc1` (stereo not drawn) (Cbz-Gly-[ξY](tBu)-OtBu), -1.72%; in that of `Cc1cccc(N2C(S)=C(C#N)C(=O)NC23CCCCC3)c1`, 5.68%. As to `Cc1nc2ccccc2n1CC(O)Cn1c2ccccc2c2ccccc21` (stereo not shown), the “hERG current change (%, negative = inhibition) at 1uM” value stood at 3.19%. In the case of `O=C(NC(=S)NCCc1ccccc1)c1ccccc1` it was 6.16%; in that of `N#CC1=C(N)OC2=C(C(=O)CCC2)C1c1ccccc1` (stereo not shown), -12.8%; in that of `COc1ccccc1NS(=O)(=O)c1cc(C(=O)N2CCCC2)ccc1C`, 4.93%. In the case of `O=c1[nH]ncn1-c1cccc(C(F)(F)F)c1` it was 15.2%; in that of `Cc1cccc(Nc2ncc3c(n2)CC(c2ccco2)CC3=O)c1` (stereo not shown), 8.27%.

With `CC(C)(C)C(=O)N(Cc1ccc(Cl)cc1)Cc1cccnc1`, the “hERG current change (%, negative = inhibition) at 1uM” value was -1.25%. In the case of `O=C(O)[C@H](Cc1ccccc1)NC(=O)N1CCCCCC1`, the “hERG current change (%, negative = inhibition) at 1uM” value stood at 7.99%. In the case of `COc1ccc(NC(=O)c2ccc(S(=O)(=O)N3CCCC3)cc2)cc1OC` it was -102%; in that of `CN(C)C(=O)Oc1cccc2c(OC(=O)N(C)C)cccc12`, 8.06%; in that of `CC(C)(C)n1nc2c(c1NC(=O)c1ccc(Cl)c([N+](=O)[O-])c1)CS(=O)(=O)C2`, 6%. `Cc1ccc(OCC(=O)Nc2cc(NC(=O)COc3ccc(C)cc3)cc(C(=O)O)c2)cc1`: the “hERG current change (%, negative = inhibition) at 1uM” value was 19.7%. With `CC(C)(C)N=C1SCC(C)(/C=N/O)S1` (stereo not shown), the “hERG current change (%, negative = inhibition) at 1uM” value is reported as 9.57%.

Take `CCC(=NCc1ccco1)c1c(O)n(C)c(=O)n(C)c1=O`: the “hERG current change (%, negative = inhibition) at 1uM” value is reported as 13.8%. For the molecule `O=C(COC(=O)c1ccccc1C(=O)c1ccc(Cl)c([N+](=O)[O-])c1)NC1CC1`, the “hERG current change (%, negative = inhibition) at 1uM” value was found to be 5.78%. In the case of `Cc1cccc(Nc2nc(N)nc(CN3CCN(c4ccccc4)CC3)n2)c1` it was -7.51%; in that of `CC(=O)C1=C(C)NC(=O)NC1c1ccc(OC2CCCC2)cc1` (stereo not shown), 2.8%; in that of `CCc1c(O)nc(SCc2ccc(F)cc2)[nH]c1=O`, 11.8%. In the case of `CN(C)c1ccc(C(C(=O)NC2CCCC2)N(C(=O)c2csnn2)C2CC2)cc1` (stereo not shown) it was 6.93%.

Take `CCOC(=O)C1(S(=O)(=O)c2ccc(Cl)cc2)CCN(Cc2ccc(C)cc2)CC1`: the “hERG current change (%, negative = inhibition) at 1uM” value was found to be 12.6%. `CCCCn1c(N)c(N(CCOC)C(=O)C2CCN(C(=O)c3ccc(Cl)cc3)CC2)c(=O)[nH]c1=O`: the “hERG current change (%, negative = inhibition) at 1uM” value was 5.05%.

For `C=CCn1c(C)cc(C(=O)CSc2nnc(-c3cccc(S(=O)(=O)N(CC)CC)c3)o2)c1C`, the “hERG current change (%, negative = inhibition) at 1uM” value is 3%. For the molecule `CN(CC(=O)Nc1ccc2c(c1)OCCO2)S(=O)(=O)c1cccc2cccnc12`, the “hERG current change (%, negative = inhibition) at 1uM” value was found to be 11.6%.

As to `O=C(CN(Cc1ccccc1)S(=O)(=O)c1ccccc1)N/N=C/c1ccccc1C(=O)O`, the “hERG current change (%, negative = inhibition) at 1uM” value was 10.6%.

`COCC1CCN(C(=O)C2CCN(c3nc(-c4ccccc4)nc4c3CCC4)CC2)C1` (stereo not shown): the “hERG current change (%, negative = inhibition) at 1uM” value is listed as -30.6%. To `CCCOc1cc2c(C#N)c(N3CCCC3)nc(N)c2c(N)n1` belongs 15.8%.

The record behind these values is article PMC4336329 (PLoS ONE, 2015).
